Measured values taken from PubChem BioAssay AID504884 (Broad Institute, 2011).
“And” between values parts separate entries of the source, which are not always exact repeats. Equal entries are not always repeated. In all, about 360,000 compounds went through this assay and about 230 (0.064%) were called active. The inconclusive results got no clear call from the source; some entries with a clear call stand among them for comparison. Cut-off read from the data, not from the text of the source: active = activity above about 50% (passing the limit was not always enough); inconclusive = no clear call, values can overlap the other calls.

These compounds were tested on DNA topoisomerase I (Yersinia pestis CO92) (assay: Yersinia pestis topoisomerase I inhibitors, primary screen, biochemical, cleavage product accumulation, plate reader, single point (AID 504884)). Conditions: Y. pestis Topo-I cleavage product accumulation, at 10 µM, stronger effect = higher value.

| SMILES | activity |
| --- | --- |
| COC(=O)C1CCCN1S(=O)(=O)c1ccc2ccccc2c1 (stereo unspecified) | inconclusive: 54.4% |
| C=CCOc1cccc(C2C(C(=O)c3cc4ccccc4o3)=C(O)C(=O)N2c2cc(C)on2)c1 (stereo unspecified) | active: 68.8% |
| O=C1CN(C(=O)CSc2nc3cc(Cl)ccc3c(=O)n2Cc2ccccc2)c2ccccc2N1 | active: 70.8% |
| NC(=O)CC(NC(=O)Cc1ccc(Br)cc1)c1ccc(NC2CC3CCC2C3)c([N+](=O)[O-])c1 (stereo unspecified) | inconclusive: 56.4% |
| Cc1ccc2nc(Nc3nc(-c4ccccc4)cc(=O)[nH]3)nc(C)c2c1 | inconclusive: 55.6% |
| CCOc1ccc(N2C(=O)CC(N3CCN(c4ccc(C(=O)c5ccncc5)cc4)CC3)C2=O)cc1 (stereo unspecified) | active: 82% |
| CN(CCOC(=O)c1ccc2c(c1)OCO2)C(C)(C)C | inconclusive: 55.7% |
| CCCCN1C(=O)C(CC(=O)NC2CCCC2)CC(C(=O)N(CC)CC)=C1C (stereo unspecified) | inactive: 2.66% |
| CCN(Cc1ccc2c(c1)OCO2)C(=O)/C=C/c1cccc(Br)c1 | inconclusive: 51% |
| Oc1c(CN2CCc3ccccc3C2)cc(Cl)c2cccnc12 | inactive: -5.36% |
| CCCCC(CC)COC(=O)CCCCC(=O)OCC(CC)CCCC (stereo unspecified) | inconclusive: 51.4% |
| COc1ccc(CN(C)C(=O)c2cc(S(=O)(=O)Nc3ccccc3F)ccc2C)c(OC)c1 | inconclusive: 128% |
| O=C(CCNS(=O)(=O)c1ccccc1C(F)(F)F)N1CCN(C(c2ccccc2)c2ccccc2)CC1 | inconclusive: 58% |
| CC(C)OC(=O)C(C)Nc1n[nH]c(=S)[nH]c1=O (stereo unspecified) | inactive: -6.29% |
| CSc1ccc(CCCCCCOC(=O)C(C)(C)C)cc1 | inconclusive: 52.6% |
| CCOC(=O)c1[nH]c2c(c1C)C(=O)CC(c1ccco1)C2 (stereo unspecified) | inactive: 5.36% |
| O=C(OCc1ccc2c(c1)OCO2)c1cccc(S(=O)(=O)N2CCCCC2)c1 | inconclusive: 51% |
| COc1ccc(CC(=O)NC(C)CCc2ccccc2)cc1 (stereo unspecified) | inconclusive: 53.7% |
| CCOP(=O)(Oc1ccccc1)c1c([N+](=O)[O-])cc(C(F)(F)F)cc1[N+](=O)[O-] (stereo unspecified) | inactive: 4.76% |
| COc1ccccc1-c1nnc(N)s1 | inactive: 5.3% |
| Cc1cccc(OP(=O)(Oc2cccc(C)c2)OC(c2ccccc2)C(F)(F)F)c1 (stereo unspecified) | active: 60.4% |
| O=C(CSc1nnc(COc2ccc(Cl)cc2)o1)N1c2ccccc2CCc2ccccc21 | active: 61.2% |

| SMILES | activity |
| --- | --- |
| COc1ccc(C(NC(=O)c2cc(OC)ccc2OC)c2ccccc2)cc1 (stereo unspecified) | active: 50.5% |
| Cc1cccc(-n2c(SCC(=O)Nc3ncc(Cl)cc3Cl)nc3ccccc32)c1 | inconclusive: 55.9% |
| CC(=O)c1c(C)[nH]c(C(=O)CN(C)CC(=O)Nc2ccccc2Cl)c1C | inactive: 5.68% |
| Cc1ccc(NC(=O)COC(=O)CCC2CCCC2)c(Br)c1 | active: 70% |
| C[C@@H](NC(=O)Cn1ccc(NC(=O)OCc2ccccc2)nc1=O)c1cccc2ccccc12 | inconclusive: 54.5% |
| CCCCOc1ccc(C(=O)NCC(=O)NCc2ccccn2)cc1 | inconclusive: 50.4% |
| Cc1ccc(OC(C)C(=O)Nc2ccccc2C(=O)N2CCOCC2)cc1 (stereo unspecified) | inactive: -11.9% |
| CC1CCc2sc(C(=O)Nc3ccc(C(N)=O)cc3)cc2C1 (stereo unspecified) | inactive: 3.82% |
| COc1ccc2oc(C(=O)OCC(=O)N(CC(C)C)c3c(N)n(Cc4ccccc4)c(=O)[nH]c3=O)c(C)c2c1 | inconclusive: 59% |
| COc1ccc([C@H]2C[C@@H](n3cc(-c4ccc(F)cc4)nn3)[C@H](O)CN2CC2CCCCC2)cc1 | inconclusive: 50.1% |
| COC(=O)Nc1nncs1 | inactive: 3.52% |
| Cc1ccc(N2C(=O)NC(=O)/C(=C/c3ccc(OC(=O)c4cccs4)cc3)C2=O)cc1 | inactive: 7.66% |
| O=C(CSc1ccc2nnc(-c3cccs3)n2n1)N1CCOCC1 | inactive: -0.567% |
| O=C(NN1C(=O)c2ccccc2NC1c1cccnc1)c1ccc([N+](=O)[O-])cc1 (stereo unspecified) | inconclusive: 62.5% |
| CCN(CC)CC(=O)Nc1ccc(-c2nc3cc(NC(=O)CN(CC)CC)ccc3o2)cc1 | inactive: -3.96% |
| Cc1cc(C)c(C(=O)Cn2nc(C(=O)O)c3ccccc3c2=O)cc1C | inconclusive: 52.7% |
| Cc1ccc(C2C=C(c3ccccc3)Nc3ncnn32)cc1 (stereo unspecified) | inactive: 15.1% |
| Cc1onc(-c2ccccc2Cl)c1C(=O)N(Cc1nc(-c2ccccc2)no1)C1CCCCC1 | inconclusive: 51.5% |
| CC1CC(C)CN(S(=O)(=O)c2ccc3c(c2)CC(C)N3C(=O)C2CC2)C1 (stereo unspecified) | inconclusive: 51.4% |
| CCCOc1ccc(C2C(C(=O)c3ccc(C)o3)=C(O)C(=O)N2Cc2ccco2)cc1 (stereo unspecified) | inconclusive: 53.8% |
| O=S(=O)(c1ccccc1)c1nc(-c2cccc(Cl)c2)oc1N1CCOCC1 | inconclusive: 53.8% |
| COCCN1CC(=O)N(c2cccc(C)c2C)C(c2ccc(Cl)cc2)C1=O (stereo unspecified) | inactive: -0.202% |

| SMILES | activity |
| --- | --- |
| O=C1NC(Cc2ccccc2)c2nc3ccccc3c(=O)n2-c2cc3ccccc3cc21 (stereo unspecified) | active: 51% |
| O=C1NC(Cc2ccccc2)c2nc3ccc(F)cc3c(=O)n2-c2cc3ccccc3cc21 (stereo unspecified) | active: 66% |
| O=C(CCc1ccc(S(=O)(=O)NC2CCCCC2)cc1)NCc1cccnc1 | inconclusive: 60.9% |
| O=C(c1cc2ccccc2oc1=O)N(Cc1ccccc1)Cc1ccc2c(c1)OCO2 | inconclusive: 51.1% |
| C=CCN(C(=O)COc1ccccc1)c1nnc(-c2ccncc2)s1 | inactive: 9.95% |
| CCOc1ccc(NC(=O)CC(Cc2cc(C)cc(C)c2)C(=O)O)cc1 (stereo unspecified) | inactive: 6.33% |
| O=c1oc2ccccc2cc1-c1cn2ccccc2n1 | inactive: 0.346% |
| O=C(COC(=O)Cc1c(Cl)cccc1Cl)Nc1ccccc1-c1ccccc1 | inconclusive: 52.8% |
| COc1ccc(C(C)=O)c2c(O)cccc12 | inactive: 0.381% |
| Cc1ccc(SCC(=O)NCCC2=CCCCC2)cc1 | active: 51.3% |
| CC1CCN(S(=O)(=O)c2ccc(NC(=O)C3CC(=O)N(c4ccccc4)C3)cc2)CC1 (stereo unspecified) | active: 71.3% |
| Oc1ccc2ccccc2c1-c1sc(Nc2ccccc2)n[n+]1-c1ccc(F)cc1 | active: 99.4% |
| O=C1CC(Sc2ncccc2C(=O)O)C(=O)N1 (stereo unspecified) | inconclusive: 81.5% |
| Cc1cc(SCC(=O)N2CCCC2=O)nc2c(C)cccc12 | inactive: -6.29% |
| COC(=O)C1=C(C)N(c2cc(C)cc(C)c2)/C(=C/c2ccco2)C1=O | inconclusive: 131% |
| CC(NC(=O)c1cc2cc(Cl)ccc2oc1=N)c1ccccc1 (stereo unspecified) | inconclusive: 71.3% |
| O=C(NCCc1ccccc1)c1cccc2c(-c3ccc(F)c(F)c3)coc12 | inconclusive: 58.1% |
| CC(C)c1ccc(CNc2ccc([N+](=O)[O-])cn2)cc1 | inconclusive: 79.3% |
| CN(Cc1c(F)cccc1Cl)C(=O)c1ccc(COc2ccccc2)cc1 | active: 54.9% |
| CCc1cc(-c2cnnn2Cc2ccc3ccccc3c2)ccc1-c1cn(CC(C)C)nn1 | inconclusive: 51.7% |
| CC(C)(C)OC(=O)N(CCc1ccccc1)Cc1ccc(OCc2cccc(NC(=O)/C=C/c3ccccc3)c2)cc1 | inactive: -0.446% |
| NC(=O)c1cn(C2OC(CO)C(O)C2O)c2ncnc(N)c12 (stereo unspecified) | inactive: 4.14% and inactive: -0.781% |

| SMILES | activity |
| --- | --- |
| COc1ccccc1NC(=O)COC(=O)c1cn(C)c2ccccc12 | inactive: 22.7% |
| COC(=O)c1sc(NC(=O)C2CCCCC2C(=O)O)c(C(=O)OC)c1C (stereo unspecified) | inactive: 0.264% |
| CCOC(=O)c1sc2nc(C)nc(NCc3ccccc3)c2c1C | inconclusive: 50.7% |
| O=C(O)c1cc(NN=C2c3ccccc3-c3ccccc32)ccc1Cl | inactive: -11.4% |
| CCOC(=O)[C@]12Cc3cc(C)ccc3[C@H]1N(Cc1ccccc1)C(=O)c1ccccc12 | inconclusive: 65.3% |
| COCCOC(=O)C1=C(C)NC(=O)NC1c1ccc(-c2cc(Cl)ccc2Cl)o1 (stereo unspecified) | inconclusive: 54.2% |
| O=C1NC(=O)C(=Cc2ccccc2[N+](=O)[O-])S1 | active: 62% |
| C/C(CC(=O)Nc1ccccc1-c1ccccc1)=N\NC(=O)COc1ccc(C)cc1Br | inconclusive: 57.9% |
| CC(C)(C)OC(=O)NCc1ccc(NC(=O)c2nc[nH]c2C(=O)NCCCNC(=O)c2[nH]cnc2C(=O)Nc2ccc(CNC(=O)OC(C)(C)C)cc2)cc1 | active: 79.2% |
| CC(Sc1n[nH]c(N)n1)C(=O)NC1CCCCC1C (stereo unspecified) | inactive: 10.4% |
| O=C(c1cc(COc2cccc(C(F)(F)F)c2)on1)N1CCc2ccccc2C1 | inconclusive: 51% |
| Cc1c(CC(=O)N2CCN(C(=O)C3COc4ccccc4O3)CC2)c(=O)oc2c(C)c(O)ccc12 (stereo unspecified) | inactive: 15.7% |
| O=C(O)CC(=O)Nc1ccc(Oc2ccc(C(F)(F)F)cn2)c(Cl)c1 | inconclusive: 50.4% |
| CCN(CC)CCNC(=O)c1cc2c(-c3ccc(Cl)cc3)nn(C)c2s1 | inactive: -13.4% |
| COc1ccccc1N(CC(=O)NCCSc1ccccc1)S(=O)(=O)c1ccccc1 | active: 56.8% |
| CCCSC1=C(C#N)C(c2ccc(Cl)cc2Cl)CC(=O)N1 (stereo unspecified) | inactive: 3.95% |
| C=CCc1cc(C)ccc1OCCCC(C(=O)OCC)C(=O)OCC | inconclusive: 54% |
| O=C(Cn1c(=O)cnc2ccccc21)Nc1ccccc1N1CCOCC1 | inconclusive: 83.1% |
| O=C(N/N=C/c1c(O)n(-c2ccc(Cl)cn2)c(=O)c2ccccc12)C1CC1 | inactive: -3.71% |
| Cc1ccc(C)c(NC(=S)N(Cc2ccc(Cl)cc2)Cc2ccc(C(=O)O)cc2)c1 | inconclusive: 56.8% |
